PubChem BioAssay AID588855 (National Center for Advancing Translational Sciences (NCATS), 2011)
Hit rate of the full screen: of about 410,000 compounds, about 5,000 (1.2%) were called active. Inconclusive means that the source gave no clear call. Such entries were picked first, then a sample of the others. Calls come from the whole dose curve; as a rule, active = well fitted inhibition curve with a large enough effect; inconclusive = small, poorly fitted or top-dose-only effect; inactive = no such curve, though single readings can be large or run the other way. Potencies beside an inconclusive call are fits to weak or partial responses and may not hold up.

Test: qHTS for Inhibitors of TGF-b; note: nearly all actives have a fitted effect of over 65% in size
Settings: HepG2 CAGA-GFP TGF-b/SMAD3 reporter, GFP fluorescence, 18 h, TGF-beta stimulated, 500 pg/mL final; series mostly up to 46.1 µM; activity, negative = inhibition: at the top concentration
Procedure, shortened: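 Inhibition of TGF-beta-driven CAGA-GFP reporter expression in HEPG2 cells is measured by cellular GFP fluorescence after 18 h stimulation with 500 pg/mL recombinant TGF-beta in 1% FBS medium at 37 degrees C.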
% is set by controls: 0 for no effect and ±100 for the full control effect; potency is the fitted concentration of half-maximal effect; tags give direction and shape of the fitted curve.

Structure (SMILES)	activity, negative = inhibition	Potency
CCOC(=O)c1cc(-c2ccc(F)cc2)n(CCC(=O)NCc2ccccc2OC)c1C	inactive: -41.5%	
O=C(NCCCCc1ccccc1)Nc1cccc(F)c1		inconclusive: 35.5 µM [inhibitor, single point]
COc1ccc(N=Nc2nc(-c3ccccc3)c(-c3ccccc3)[nH]2)cc1		inconclusive: 10 µM [inhibitor, partial curve]
Cc1c(O)ccc(C(=O)CN2CCN(c3ccccc3)CC2)c1O	inactive: 11.8%	
COc1ccc(NC(=O)C(C)n2c(C)c3cnn(-c4ccccc4)c(=O)c3c2C)cc1Cl (stereo not drawn)		inconclusive: 17.8 µM [inhibitor, single point]
Cn1c(CCN2CCN(c3ccccn3)CC2)nc2cc(NS(=O)(=O)c3ccccc3)ccc21		inconclusive: 22.4 µM [inhibitor, single point]
CCCCS(=O)(=O)Nc1ccc(N2CCOCC2)c(S(=O)(=O)N2CCOCC2)c1		inconclusive: 14.1 µM [inhibitor, partial curve, poor fit]
CC(C)(CN1CCN(C(c2ccccc2)c2ccccc2)CC1)NS(=O)(=O)c1ccccc1		inconclusive: 5.62 µM [inhibitor, full curve]
CCn1c(SCC(=O)Nc2cccc(NC(C)=O)c2)nc2c([nH]c3ccccc32)c1=O		inconclusive: 5.62 µM [inhibitor, single point]
O=c1[nH]c(CSc2ncc(-c3ccc(F)cc3)n2Cc2ccco2)nc2ccccc12		inconclusive: 17.8 µM [inhibitor, single point]
C=CCNc1oc(-c2cccc(F)c2)nc1C#N		inconclusive: 35.5 µM [inhibitor, single point]
O=C(NCCc1ccccc1)c1ccc(CSc2nc3ccncc3n2Cc2ccccc2F)cc1		active: 7.08 µM
O=C1c2ccccc2NC(c2ccc(-c3ccc(Br)cc3)o2)N1O (stereo not drawn)		inconclusive: 35.5 µM [inhibitor, single point]
CC(C)[C@H]1CN=C2N(CCNC(=O)CCC3CCCCC3)[C@H](Cc3ccc(O)cc3)CN21	inactive: 4.35%	
CC1=C(C(=O)N(C(C)C)C(C)C)CC(CC(=O)NCC2CCCCC2)C(=O)N1Cc1ccc(F)cc1 (stereo not drawn)		inconclusive: 11.2 µM [inhibitor, partial curve, poor fit]
c1ccc(CC2CCN(c3nnnn3-c3ccccc3)CC2)cc1		inconclusive: 35.5 µM [inhibitor, single point]
CCN(CC(=O)Nc1c(F)cccc1F)C(=O)c1ccc(NC(=O)CC2SC(N3CCCC3)=NC2=O)cc1 (stereo not drawn)		inconclusive: 25.1 µM [inhibitor, single point]
CC1(C)CC2(CC(c3ccc(F)cc3)c3ccc(O)cc3O2)NC(=S)N1 (stereo not drawn)		inconclusive: 35.5 µM [inhibitor, single point]
COC(=O)N/N=C(\C)c1ccccc1OC(F)F	inactive: 39.4%	
COc1ccc(Cl)cc1C(=O)NC(=S)Nc1ccccc1N1CCOCC1	inactive: 3.66%	
O=S(=O)(c1ccccc1F)N1CCC(c2nc3ccccc3[nH]2)CC1		inconclusive: 20 µM [inhibitor, single point]

Structure (SMILES)	activity, negative = inhibition	Potency
C/C(=N\NC(=S)Nc1ccccc1C)c1cc2ccccc2o1		inconclusive: 11.2 µM [inhibitor, partial curve, poor fit]
O=C(NC12CC3CC(CC(C3)C1)C2)N1CC2Cc3cccc(=O)n3C(C2)C1 (stereo not drawn)		inconclusive: 0.562 µM [inhibitor, full curve, poor fit]
COc1ccc(CCNC(=O)CC(c2ccccc2)c2cccc(C)c2O)cc1OC (stereo not drawn)		inconclusive: 12.6 µM [inhibitor, partial curve]
COc1ccccc1N1CCN(S(=O)(=O)c2ccc3c4c(cccc24)C(=O)N3)CC1		inconclusive: 12.6 µM [inhibitor, single point]
CN([C@@H](Cc1ccc(OS(=O)(=O)c2cccc3cnccc23)cc1)C(=O)N1CCN(c2ccccc2)CC1)S(=O)(=O)c1cccc2cnccc12		inconclusive: 0.501 µM [inhibitor, full curve, poor fit]
Cc1cc(OCc2cc(C(=O)N3CCN(C)C(=O)[C@@H]3C)no2)cc(C)c1Cl		inconclusive: 35.5 µM [inhibitor, single point]
O=CNc1cc(-c2ccc(C(=O)NC3CC3)cc2)cn2c(-c3ccc(F)c(Cl)c3)cnc12		inconclusive: 7.94 µM [inhibitor, partial curve, poor fit]
Cc1nccn1CC(O)COc1ccccc1 (stereo not drawn)	inactive: -0.425%	
C[C@H]1CN([C@@H](C)CO)S(=O)(=O)c2ccc(Br)cc2O[C@@H]1CN(C)Cc1cccc(F)c1		active: 17.8 µM
O=C(NCCCN1CCCC1)c1ccc2c(Cl)c3c(nc2c1)CCCC3		inconclusive: 25.1 µM [inhibitor, single point]
Cc1ccc(OCC(=O)Nc2c(C)nn(-c3ccccc3)c2C)c(Br)c1		inconclusive: 35.5 µM [inhibitor, single point]
CCOC(=O)C(Cc1c[nH]c2cc([N+](=O)[O-])ccc12)(NC(C)=O)C(=O)OCC	inactive: 4.82%	
COC(=O)C1=C(C(=O)OC)C(c2ccc(OC)c(OC)c2)c2sc(=O)[nH]c2S1 (stereo not drawn)		inconclusive: 5.62 µM [inhibitor, full curve, poor fit]
COc1cccc(CNS(=O)(=O)c2ccc(N3CCCCS3(=O)=O)cc2)c1		inconclusive: 22.4 µM [inhibitor, single point]
O=C1CC(c2ccco2)CC2=C1C1c3ccccc3C(=O)N1c1ccccc1N2 (stereo not drawn)		inconclusive: 15.8 µM [inhibitor, partial curve, poor fit]
O=C(c1cccc(F)c1)N1CCC(c2c[nH]c3ccccc23)(c2c[nH]c3ccccc23)CC1		inconclusive: 15.8 µM [inhibitor, partial curve, poor fit]
COc1ccccc1NC(=S)Nc1cccc(F)c1		inconclusive: 35.5 µM [inhibitor, single point]
Cc1cc(NC(=O)COC(=O)CCNS(=O)(=O)c2ccccc2)n(-c2ccccc2)n1		inconclusive: 6.31 µM [inhibitor, single point]
COc1ccccc1CCNC(=O)C(=O)NCC1OCCN1S(=O)(=O)c1ccc(Br)cc1 (stereo not drawn)		inconclusive: 0.501 µM [inhibitor, full curve, poor fit]
COC(=O)C(Cc1ccc(OC(=O)c2ccc(C(F)(F)F)cc2)cc1)N1Cc2ccccc2C1=O (stereo not drawn)	inactive: -1.72%	
CCCn1c(SCC(=O)Nc2cccc(S(=O)(=O)N(C)C)c2)nc2ccccc2c1=O		inconclusive: 35.5 µM [inhibitor, single point]

Structure (SMILES)	activity, negative = inhibition	Potency
CC(C)(C)c1ccc(CC(=O)N2CCC2(C)C(=O)NCc2cccc3ccccc23)cc1 (stereo not drawn)		inconclusive: 31.6 µM [inhibitor, single point]
O=C(C[n+]1cccc(C(=O)Nc2ccccc2)c1)c1ccc([N+](=O)[O-])cc1		inconclusive: 3.16 µM [inhibitor, partial curve]
Cc1ccc(OCc2cc(C(=O)NC3CCCCC3)no2)cn1	inactive: -13.4%	
CN(C)S(=O)(=O)c1cccc(NC(=S)Nc2cc(Cl)cc(Cl)c2)c1		inconclusive: 35.5 µM [inhibitor, single point]
CCCCNC(=S)N(Cc1c(C)noc1C)c1ccccc1		inconclusive: 6.31 µM [inhibitor, single point]
O=C(NCC(c1ccc2c(c1)OCO2)N1CCN(c2ccccc2F)CC1)c1ccccc1F (stereo not drawn)		active: 10 µM
CCc1nnc(NC(=O)Cn2nc(-c3ccccc3OC)ccc2=O)s1		inconclusive: 35.5 µM [inhibitor, single point]
CC(=O)OCC(=O)C1=CCC2C3CCC4=CC(=O)C=CC4(C)C3(F)C(OC(C)=O)CC12C (stereo not drawn)	inactive: 2.07%	
COc1cc(OC)c(-c2nc3ccccc3s2)cc1OC		inconclusive: 14.1 µM [inhibitor, partial curve, poor fit]
CCOC(=O)c1cccc(NC(=O)CN2CCN(c3ccc(OC)cc3)CC2)c1		inconclusive: 12.6 µM [inhibitor, single point]
Cc1ccc(C(=O)N(CCCN(C)C)c2nc3ccc(Cl)cc3s2)cc1C		inconclusive: 22.4 µM [inhibitor, single point]
COc1cc(OC)c2ccc(=O)oc2c1C(CCN1CCOCC1)c1ccc2c(c1)OCO2 (stereo not drawn)	inactive: -20.4%	
COc1cc(C#Cc2c(-c3ccccc3)n(C)c3ccccc23)cc(OC)c1	inactive: -16.2%	
Cc1ccc(C(=O)N/C(=C/c2ccc(-c3ccc([N+](=O)[O-])cc3)o2)C(=O)NCCCN(C)C)cc1		inconclusive: 14.1 µM [inhibitor, single point]
COc1cc(C(=O)NCC(c2ccco2)N2CCc3ccccc32)cc(OC)c1OC (stereo not drawn)	inactive: 1.92%	
Cc1c(/C=N/n2cnnc2)c2ccccc2n1CCOc1ccccc1		inconclusive: 35.5 µM [inhibitor, single point]
COC(=O)c1ccc(NC(=O)Nc2ccc(F)cc2F)cc1	inactive: 4.11%	
O=S(=O)(Nc1nc2ccccc2nc1Cl)c1ccc(Br)cc1		active: 12.6 µM
O=C(Nc1ccc(Cl)cc1C(F)(F)F)C(Sc1nnc(-c2cccs2)o1)c1ccccc1 (stereo not drawn)		inconclusive: 10 µM [inhibitor, partial curve, poor fit]
CC1=Nc2cc(C(=O)N3CCCCC3)ccc2Sc2ccc(C)cc21		inconclusive: 35.5 µM [inhibitor, single point]
Cc1ccc2c(c1)sc(-c1ccc(N(C)C)cc1)[n+]2C		inconclusive: 8.91 µM [inhibitor, partial curve, poor fit]
